# Laboratory results from patent US9975943B2, “Polypeptides” (AFFIBODY AB, priority 2013, dated 2018).
# Target: human FcRn (Homo sapiens, UniProt P55899)
# Assay: ELISA KD titration analysis of Z-ABD variants from the maturation
# Format: binding
# Set-up: purchased Biorbyt orb84388
# Conditions: Z-ABD variants in periplasm
# Description: A selection of FcRn binders was subjected to an analysis of the response against a dilution series of biotinylated human FcRn using ELISA at both pH 6.0 and pH 7.4 as described above. […] As a background control, all Z variants were also assayed with no target protein added. […] Periplasm containing the ABD moiety only was used as a negative control. Data were analyzed using GraphPad Prism 5 and non-linear regression and KD values (the half maximal effective concentration) were calculated.
"Kd (pH 6.0, read-out: KD pH 6.0) [nM]","Kd (pH 7.4, read-out: KD pH 7.4) [nM]",Substance
1.4,6.9,Z13587: FcRn binding Z variant from the maturated library (VDAKYAKEHVDAAHEIRWLPNLTFDQRVAFIHKLRDDPSQSSELLSEAKKLNDSQAPK; Engineered FcRn binding polypeptide)
1.3,6.3,Z13594: FcRn binding Z variant from the maturated library (VDAKYAKEIDEAKHEIRWLPNLTFDQRVAFIHKLDDDPSQSSELLSEAKKLNDSQAPK; Engineered FcRn binding polypeptide)
1.3,3.8,Z13605: FcRn binding Z variant from the maturated library (VDAKYAKEIESAKHEIRWLPNLTFDQRVAFIHKLNDDPSQSSELLSEAKKLNDSQAPK; Engineered FcRn binding polypeptide)
1.3,2.7,Z13609: FcRn binding Z variant from the maturated library (VDAKYAKEWKVAAHEIRWLPNLTFDQRVAFIHKLRDDPSQSSELLSEAKKLNDSQAPK; Engineered FcRn binding polypeptide)
1.2,4.3,Z13613: FcRn binding Z variant from the maturated library (VDAKYAKELEAARHEIRWLPNLTFDQRVAFIHKLNDDPSQSSELLSEAKKLNDSQAPK; Engineered FcRn binding polypeptide)
1.2,2.9,Z13627: FcRn binding Z variant from the maturated library (VDAKYAKELMEAAHEIRWLPNLTFDQRVAFIHKLRDDPSQSSELLSEAKKLNDSQAPK; Engineered FcRn binding polypeptide)
1,1.7,Z13635: FcRn binding Z variant from the maturated library (VDAKYAKEWNDAAHEIRWLPNLTFDQRVAFIHKLRDDPSQSSELLSEAKKLNDSQAPK; Engineered FcRn binding polypeptide)
1.2,2.9,Z13638: FcRn binding Z variant from the maturated library (VDAKYAKEFNFAAHEIRWLPNLTFDQRVAFIHKLRDDPSQSSELLSEAKKLNDSQAPK; Engineered FcRn binding polypeptide)

# Continued, substance first:
Substance,"Kd (pH 6.0, read-out: KD pH 6.0) [nM]","Kd (pH 7.4, read-out: KD pH 7.4) [nM]"
Z13573: FcRn binding Z variant from the maturated library (VDAKYAKESKDAAHEIRWLPNLTFDQRVAFIHKLRDDPSQSSELLSEAKKLNDSQAPK; Engineered FcRn binding polypeptide),1.1,3.8
Z13574: FcRn binding Z variant from the maturated library (VDAKYAKEKKEAAHEIRWLPNLTFDQRVAFIHKLRDDPSQSSELLSEAKKLNDSQAPK; Engineered FcRn binding polypeptide),1.2,5
Z13579: FcRn binding Z variant from the maturated library (VDAKYAKEISAASHEIRWLPNLTFDQRVAFIHKLRDDPSQSSELLSEAKKLNDSQAPK; Engineered FcRn binding polypeptide),1.2,5.3
Z13585: FcRn binding Z variant from the maturated library (VDAKYAKEYLDAAHEIRWLPNLTFDQRVAFIHKLRDDPSQSSELLSEAKKLNDSQAPK; Engineered FcRn binding polypeptide),1.2,1.7
Z13586: FcRn binding Z variant from the maturated library (VDAKYAKELKDAGHEIRWLPNLTFDQRVAFIHKLRDDPSQSSELLSEAKKLNDSQAPK; Engineered FcRn binding polypeptide),1.2,2.3
Z13588: FcRn binding Z variant from the maturated library (VDAKYAKEYAAAAHEIRWLPNLTFDQRVAFIHKLRDDPSQSSELLSEAKKLNDSQAPK; Engineered FcRn binding polypeptide),1,2.3
Z13597: FcRn binding Z variant from the maturated library (VDAKYAKELQSAAHEIRWLPNLTFDQRVAFIHKLKDDPSQSSELLSEAKKLNDSQAPK; Engineered FcRn binding polypeptide),1.4,6
Z13598: FcRn binding Z variant from the maturated library (VDAKYAKELEKAAHEIRWLPNLTFDQRVAFIHKLRDDPSQSSELLSEAKKLNDSQAPK; Engineered FcRn binding polypeptide),1.1,1.7
Z13600: FcRn binding Z variant from the maturated library (VDAKYAKEAHEAAHEIRWLPNLTFDQRVAFIHKLRDDPSQSSELLSEAKKLNDSQAPK; Engineered FcRn binding polypeptide),1.4,4
Z13611: FcRn binding Z variant from the maturated library (VDAKYAKEWKAAAHEIRWLPNLTFDQRVAFIHKLRDDPSQSSELLSEAKKLNDSQAPK; Engineered FcRn binding polypeptide),1.3,2.5
Z13617: FcRn binding Z variant from the maturated library (VDAKYAKEADQAGHEIRWLPNLTFDQRVAFIRKLRDDPSQSSELLSEAKKLNDSQAPK; Engineered FcRn binding polypeptide),1.2,1.9
Z13624: FcRn binding Z variant from the maturated library (VDAKYAKESKQAAHEIRWLPNLTFDQRVAFIHKLRDDPSQSSELLSEAKKLNDSQAPK; Engineered FcRn binding polypeptide),1.3,3.4
Z13625: FcRn binding Z variant from the maturated library (VDAKYAKEVSDAAHEIRWLPNLTFDQRVAFIHKLRDDPSQSSELLSEAKKLNDSQAPK; Engineered FcRn binding polypeptide),1.3,2.8
Z13626: FcRn binding Z variant from the maturated library (VDAKYAKEADSASHEIRWLPNLTFDQRVAFIHKLRDDPSQSSELLSEAKKLNDSQAPK; Engineered FcRn binding polypeptide),1.2,2.7
Z13628: FcRn binding Z variant from the maturated library (VDAKYAKELNTAAHEIRWLPNLTFDQRVAFIHKLKDDPSQSSELLSEAKKLNDSQAPK; Engineered FcRn binding polypeptide),1.3,5.5
Z13634: FcRn binding Z variant from the maturated library (VDAKYAKEWYNAAHEIRWLPNLTFDQRVAFIHKLRDDPSQSSELLSEAKKLNDSQAPK; Engineered FcRn binding polypeptide),1.1,2.3
Z13637: FcRn binding Z variant from the maturated library (VDAKYAKEVEVAKHEIRWLPNLTFDQRVAFIHKLDDDPSQSSELLSEAKKLNDSQAPK; Engineered FcRn binding polypeptide),1.3,4.8
Z13639: FcRn binding Z variant from the maturated library (VDAKYAKEHDSAAHEIRWLPNLTFDQRVAFIHKLRDDPSQSSELLSEAKKLNDSQAPK; Engineered FcRn binding polypeptide),1.3,3

# Read-outs that look alike come from different tables or passages of the source.
